PubChem BioAssay AID588579 (National Center for Advancing Translational Sciences (NCATS), 2011)
In all, about 400,000 compounds went through this assay and about 2,200 (0.55%) were called active. Inconclusive results, whose numbers are uncertain, are shown with a selection of clear calls. The call rests on the fitted dose curve; in most records, active means well fitted inhibition curve with a large enough effect; inconclusive means small, poorly fitted or top-dose-only effect, or another doubt; inactive means no such curve, though single readings can be large or run the other way. Where the call is inconclusive, the potency comes from a doubtful curve fit.
On the % scale 0 is the no-effect control and ±100 the full control effect; potency means the concentration at half of the fitted maximal effect; tags describe the fitted curve by direction and shape.

The compounds below were run against DNA polymerase kappa (Homo sapiens) (UniProt Q9UBT6) (assay: qHTS for Inhibitors of Polymerase Kappa). Settings: purified Pol kappa, fluorescent DNA synthesis assay, 10 min; series mostly up to 107 µM; activity, negative = inhibition: at the top concentration.
Chain of UniProt Q9UBT6 (Q9UBT6 whole entry, looked up): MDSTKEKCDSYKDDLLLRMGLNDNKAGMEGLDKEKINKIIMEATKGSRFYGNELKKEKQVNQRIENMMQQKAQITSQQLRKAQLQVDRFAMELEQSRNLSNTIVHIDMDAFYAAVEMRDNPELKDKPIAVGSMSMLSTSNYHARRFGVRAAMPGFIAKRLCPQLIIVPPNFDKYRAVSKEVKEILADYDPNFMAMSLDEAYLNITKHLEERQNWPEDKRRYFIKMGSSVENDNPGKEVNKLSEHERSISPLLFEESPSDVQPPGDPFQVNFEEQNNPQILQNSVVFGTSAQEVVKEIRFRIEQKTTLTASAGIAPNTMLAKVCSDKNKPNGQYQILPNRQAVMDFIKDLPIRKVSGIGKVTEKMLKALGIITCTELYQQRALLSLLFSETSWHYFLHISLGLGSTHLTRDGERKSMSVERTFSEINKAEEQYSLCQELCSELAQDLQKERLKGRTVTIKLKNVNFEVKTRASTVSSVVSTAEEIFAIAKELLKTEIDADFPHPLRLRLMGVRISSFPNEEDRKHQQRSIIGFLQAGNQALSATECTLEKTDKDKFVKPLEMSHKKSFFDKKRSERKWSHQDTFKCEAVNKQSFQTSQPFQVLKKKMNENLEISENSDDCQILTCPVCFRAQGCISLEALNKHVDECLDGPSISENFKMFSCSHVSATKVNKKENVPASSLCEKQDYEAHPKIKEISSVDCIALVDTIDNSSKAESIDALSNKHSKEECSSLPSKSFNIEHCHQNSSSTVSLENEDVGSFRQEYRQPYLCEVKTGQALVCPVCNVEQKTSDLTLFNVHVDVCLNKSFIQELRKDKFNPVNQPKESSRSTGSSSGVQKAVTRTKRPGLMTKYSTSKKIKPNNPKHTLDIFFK
Summary of the method: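 Here, compound and 10 nM enzyme are combined for 15 min at room temperature; adding 50 nM substrate (final) starts DNA synthesis, tracked by fluorescence at 0 and 10 min against buffer-only wells.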
In the case of `CN(CCO)C(=O)C1CCN(c2ncc(C(F)(F)F)cc2Cl)CC1`, the Potency was inconclusive: 89.1 µM [inhibitor, single point].
`O=C(COC(=O)c1ccc(Cl)c(S(=O)(=O)N2CCCCC2)c1)NCc1ccco1` was tested, and the Potency was inconclusive: 25.1 µM [inhibitor, single point].
For `CCC1CCc2sc(C(=O)OCC(=O)N(CCOC)c3c(N)n(Cc4ccccc4)c(=O)[nH]c3=O)cc2C1` (configuration not stated), the “activity, negative = inhibition” value was inactive: -8.32%.
`Cc1ccc(N=Nc2c(N)nn3c(N)c(C#N)c(C)nc23)cc1` was tested, and the Potency was active: 79.4 µM.
For `Cc1cc(NC(=O)CCN2CC(C)OC(C)C2)ccc1Br` (configuration not stated), the Potency was inconclusive: 89.1 µM [inhibitor, single point].
For `COc1ccc(NC(=O)NCc2cccn2Cc2ccc(F)cc2)cc1OC`, the “activity, negative = inhibition” value was inactive: -9.09%.
`COc1ccccc1CNC(=O)C1CCN(S(=O)(=O)c2c(C)noc2/C=C/c2cccs2)CC1` was tested, and the Potency was inconclusive: 89.1 µM [inhibitor, single point].
With `CSc1ccc(/C=N/Nc2cccc(C(=O)O)c2)cc1` the Potency was active: 7.94 µM.
In the case of `COc1ccc2nc(C)cc(N/N=C/c3ccccc3)c2c1`, the Potency was inconclusive: 89.1 µM [inhibitor, single point].
`CN(Cc1ccccc1)C(=O)COC(=O)/C=C/c1ccco1` was tested, and the Potency was inconclusive: 100 µM [inhibitor, single point].
For `Cc1ccc(C(=O)OCC(=O)Nc2ccccc2)cc1S(=O)(=O)N1CCCCC1`, the Potency was inconclusive: 89.1 µM [inhibitor, partial curve, poor fit].
For `Cc1ccc2onc(CC(=O)Nc3cc(F)ccc3F)c2c1`, the Potency was inconclusive: 89.1 µM [inhibitor, partial curve, poor fit].
For `O=C1[C@@H]2CSCN2C(=O)CN1Cc1ccc(F)cc1`, the Potency was inconclusive: 89.1 µM [inhibitor, single point].
In the case of `Cc1ccc(NC(=O)c2cnccn2)nc1`, the Potency was inconclusive: 89.1 µM [inhibitor, single point].
With `O=C(N/N=C/C=C/c1ccco1)C(O)c1ccccc1` (configuration not stated) the Potency was inconclusive: 56.2 µM [inhibitor, partial curve, poor fit].
`NC(=S)NC1CC2CC1C1C=CCC21` (configuration not stated) was tested, and the “activity, negative = inhibition” value was inactive: 6.71%.
`COc1ccc(/C=C2/SC(=S)N(NS(=O)(=O)c3ccccc3)C2=O)cc1` was tested, and the “activity, negative = inhibition” value was inactive: -15.8%.
For `Cc1cc2c(c(=O)o1)C(c1ccc([N+](=O)[O-])o1)C(C#N)=C(N)O2` (configuration not stated), the Potency was active: 79.4 µM.
With `O=C(c1ccc2c(c1)N(Cc1ccccc1)C(=O)c1ccccc1S2(=O)=O)N1CCOCC1` the “activity, negative = inhibition” value was inactive: -6.61%.
With `O=C(COc1ccc(Br)cc1)N1CCCCCC1` the “activity, negative = inhibition” value was inactive: 0.706%.
`CCc1cccc(C)c1NC(=O)COn1nnc2ccc(C(F)(F)F)cc21` was tested, and the Potency was inconclusive: 89.1 µM [inhibitor, partial curve, poor fit].
In the case of `COc1ccccc1OCC(=O)NCc1ccco1`, the “activity, negative = inhibition” value was inactive: 1.13%.
`CCOC(=O)C1CCN(C(=O)C2CCN(S(=O)(=O)c3c(C)noc3/C=C/c3ccc(C)cc3)CC2)CC1` was tested, and the “activity, negative = inhibition” value was inactive: -9.29% [at 60.1 µM].
For `CCCSc1nc2sc3c(c2c(=O)[nH]1)CC(C)CC3` (configuration not stated), the “activity, negative = inhibition” value was inactive: 0.748%.
In the case of `CSc1ccc(C2C(C#N)=C(N)Oc3cc4c(cc32)OCO4)cc1` (configuration not stated), the Potency was active: 89.1 µM.
For `O=C(Cn1ccnc1)c1ccc(O)c(O)c1`, the Potency was inconclusive: 89.1 µM [inhibitor, partial curve, poor fit].
In the case of `CN(C)c1ccc(O)c2c1CC1CC3[C@@H](N(C)C)C(=O)C(C(N)=O)C(=O)[C@]3(O)C(=O)C1C2=O` (some centres not stated), the Potency was inconclusive: 79.4 µM [inhibitor, single point].
`O=C(CNC(=O)c1cccs1)N=Nc1c(O)[nH]c2ccc([N+](=O)[O-])cc12` was tested, and the Potency was inconclusive: 79.4 µM [inhibitor, partial curve, poor fit].
In the case of `COc1ccc(OC)c(NC(=O)COC(=O)/C=C/c2ccco2)c1`, the Potency was inconclusive: 70.8 µM [inhibitor, partial curve, poor fit].
For `CNc1ccc(Br)cc(C(=O)/C=C/c2cccc(Cl)c2Cl)c1=O`, the Potency was active: 44.7 µM.
`CCOC(=O)C1CCN(C(=O)CNC(=O)Cn2c(C)cc3ccccc3c2=O)CC1` was tested, and the Potency was inconclusive: 89.1 µM [inhibitor, single point].
For `Cc1c(C(=O)OCC2CCCCC2)[nH]c2c1C(=O)CC(c1ccc(F)cc1)C2` (configuration not stated), the Potency was inconclusive: 89.1 µM [inhibitor, single point].
With `O=C(O)c1cc([N+](=O)[O-])ccc1N1CCCCC1` the “activity, negative = inhibition” value was inactive: -12.7%.
For `c1cn(-c2cc(-c3ccc4c(c3)OCO4)ncn2)cn1`, the Potency was active: 25.1 µM.
`C=CCOc1ccc(C=NNc2ccc(S(=O)(=O)Nc3ccccc3C(=O)O)cc2[N+](=O)[O-])cc1OC` was tested, and the Potency was inconclusive: 35.5 µM [inhibitor, partial curve, poor fit].
For `C#CCOCCOCCOCCNc1nc(N2CCN(C(=O)[C@H]([C@@H](C)CC)n3cc([C@@H](N)CC(C)C)nn3)CC2)nc(N2CCN(C(=O)[C@H](CCCCN)n3cc([C@@H](N)CC(C)C)nn3)CC2)n1`, the “activity, negative = inhibition” value was inactive: -18.2%.
For `COCc1cc(C)nc(SCC(=O)c2ccc(O)c(O)c2)c1C#N`, the Potency was inconclusive: 31.6 µM [inhibitor, partial curve, poor fit].
`O=C(Nc1cccc(C(F)(F)F)c1)/C(=C\c1ccco1)NC(=O)c1cccs1` was tested, and the “activity, negative = inhibition” value was inactive: -9.09%.
In the case of `O=c1cc(C(F)(F)F)nc(-n2[nH]c3c(c2=O)CCCC3)[nH]1`, the Potency was inconclusive: 56.2 µM [inhibitor, partial curve].
With `O=C(CSc1nnc(C2CC2)n1-c1ccccc1)NC1CCS(=O)(=O)C1` (configuration not stated) the “activity, negative = inhibition” value was inactive: -6.28%.
For `Oc1ccc(C2Oc3cc(O)cc(O)c3CC2O)cc1` (configuration not stated), the Potency was inconclusive: 31.6 µM [inhibitor, single point].
In the case of `O=c1c2c(O)cc(O)cc2oc2c(O)ccc(O[C@H]3O[C@@H](CO)[C@H](O)[C@@H](O)[C@@H]3O)c12`, the Potency was inconclusive: 79.4 µM [inhibitor, single point].
With `COc1cccc(-c2ncc3ccccc3c2COC(=O)N(C)C)c1` the “activity, negative = inhibition” value was inactive: -0.86%.
With `O=C(N/N=C/c1ccncc1)c1ccccc1[N+](=O)[O-]` the “activity, negative = inhibition” value was inactive: 0.634%.
`O=C(O)c1ccc(-n2nc(C(F)(F)F)c3c2-c2ccoc2CC3)cc1` was tested, and the Potency was inconclusive: 89.1 µM [inhibitor, single point].
`COc1ccc(CCn2c(C3CCCCC3)nc3c(c(=O)c4ccccc4n3C)c2=O)cc1OC` was tested, and the “activity, negative = inhibition” value was inactive: -6.47%.
`Cc1cccc(C)c1NC(=O)CSc1nc2ncccc2o1` was tested, and the “activity, negative = inhibition” value was inactive: 4.75%.
`c1ccc(-c2nn[nH]n2)c(Nc2cccc3c2CCCC3)c1` was tested, and the Potency was inconclusive: 37.7 µM [inhibitor, single point].
`Cc1ccc(C(=O)O)cc1-c1ccc(/C=C2\SC(=O)N(CC(=O)Nc3ccc4c(c3)OCO4)C2=O)o1` was tested, and the Potency was active: 28.2 µM.
`CC1=NN(c2ccc(C)c(C)c2)C(=O)/C1=C/c1ccc2c(c1)n(C)c(=O)n2C` was tested, and the “activity, negative = inhibition” value was inactive: -23.7%.
`CC(=O)NCCNc1nc(-c2cccnc2)nc2ccccc12` was tested, and the “activity, negative = inhibition” value was inactive: 3.57% [at 60.1 µM].
`COc1cc(C)ccc1OCCCOc1ccccc1Br` was tested, and the Potency was inconclusive: 89.1 µM [inhibitor, single point].
For `Cc1ccnc2nc(C(=O)Nc3nnc(-c4ccc(Cl)cc4)o3)nn12`, the Potency was inconclusive: 100 µM [inhibitor, single point].
`N#Cc1c2nc3ccccc3nc2n2cc(NC(=O)c3ccc(F)cc3)ccc12` was tested, and the Potency was inconclusive: 79.4 µM [inhibitor, partial curve].
In the case of `Cc1ccc(OCc2ccoc2C(=O)O)cc1C`, the Potency was inconclusive: 79.4 µM [inhibitor, partial curve].
With `Cc1cccc2c1-c1sc(C(=O)NCc3ccc(Cl)cc3)cc1CO2` the Potency was inconclusive: 89.1 µM [inhibitor, single point].
With `CCCCN(C(=O)c1cc(-c2ccco2)nc2ccccc12)c1c(N)n(CCC)c(=O)[nH]c1=O` the Potency was active: 79.4 µM.
In the case of `NC(=O)C1CCN(C(=O)CSc2ccsc2[N+](=O)[O-])CC1`, the Potency was inconclusive: 89.1 µM [inhibitor, partial curve].
`Cc1ccc(Cl)cc1NC(=O)CSc1sc2c(O)cc(=O)[nH]c2c1C#N` was tested, and the Potency was inconclusive: 89.1 µM [inhibitor, single point].
With `CCCCCC(=O)Nc1cc(S(=O)(=O)O)cc2cc(S(=O)(=O)O)cc(O)c12` the Potency was active: 1.41 µM.
For `CC(C)=CCc1c2c(c3occ(-c4ccc(O)cc4)c(=O)c3c1O)C=CC(C)(C)O2`, the Potency was inconclusive: 17.8 µM [inhibitor, single point].
`O=C(OCc1cc(=O)n2c(n1)sc1ccccc12)c1ccc2c(=O)n3c(nc2c1)CCC3` was tested, and the Potency was inconclusive: 89.1 µM [inhibitor, single point].
`O=C1Nc2ccc(S(=O)(=O)NCc3ccccn3)c3cccc1c23` was tested, and the Potency was inconclusive: 100 µM [inhibitor, single point].
For `Nc1ccc2c(c1Cl)C(=O)c1ccc(N)c(Cl)c1C2=O`, the Potency was inconclusive: 31.6 µM [inhibitor, single point].
With `Cc1cc(SCC(=O)c2ccc(O)c(O)c2)nc2ccccc12` the Potency was active: 50.1 µM.
With `C=C1C=C(C(F)F)n2ncc(C(=O)N3CCc4ccccc4C3)c2N1` the “activity, negative = inhibition” value was inactive: 2.09%.
In the case of `Cc1cccc(-c2nc3scc(CCNS(=O)(=O)c4ccc(Oc5ccccc5)cc4)n3n2)c1`, the “activity, negative = inhibition” value was inactive: -10.9% [at 60.1 µM].
For `O=C(Nc1cccc(Cl)c1)c1ccc(F)c(S(=O)(=O)NCc2ccc3c(c2)OCO3)c1`, the “activity, negative = inhibition” value was inactive: 3.36%.
For `Nc1ncnc2oc(-c3ccco3)c(-c3ccco3)c12`, the Potency was active: 25.1 µM.
With `O=C(CCl)N(c1ccccc1)c1ccccc1` the “activity, negative = inhibition” value was inactive: -2.98%.
With `CCC1CCc2nc3sc(C(=O)Nc4ccc(C)cc4)c(N)c3cc2C1` (configuration not stated) the “activity, negative = inhibition” value was inactive: -12.8%.
In the case of `COc1ccc(C(=O)COC(=O)CNC(=O)c2ccc(Cl)cc2Cl)c(OC)c1`, the Potency was inconclusive: 89.1 µM [inhibitor, partial curve, poor fit].
